Reference: PubChem BioAssay AID588579 (National Center for Advancing Translational Sciences (NCATS), 2011)
Where “and” joins values, the source holds several entries; their conditions need not be identical. Equal entries are not always repeated. The campaign covered roughly 400,000 compounds. About 2,200 (0.55%) were called active. Inconclusive means that the source gave no clear call. Such entries were picked first, then a sample of the others. Calls come from the whole dose curve; as a rule, active = well fitted inhibition curve with a large enough effect; inconclusive = small, poorly fitted or top-dose-only effect, or another doubt; inactive = no such curve, though single readings can be large or run the other way. Potencies beside an inconclusive call are fits to weak or partial responses and may not hold up. The source holds several records for some structures; these can differ, active in one and inactive in another.

The molecules below were run against DNA polymerase kappa (Homo sapiens) (UniProt Q9UBT6) (assay: qHTS for Inhibitors of Polymerase Kappa). Conditions: purified Pol kappa, fluorescent DNA synthesis assay, 10 min; series mostly up to 107 µM; activity, negative = inhibition: at the top concentration.
Sequence of UniProt Q9UBT6 (Q9UBT6 whole entry, looked up): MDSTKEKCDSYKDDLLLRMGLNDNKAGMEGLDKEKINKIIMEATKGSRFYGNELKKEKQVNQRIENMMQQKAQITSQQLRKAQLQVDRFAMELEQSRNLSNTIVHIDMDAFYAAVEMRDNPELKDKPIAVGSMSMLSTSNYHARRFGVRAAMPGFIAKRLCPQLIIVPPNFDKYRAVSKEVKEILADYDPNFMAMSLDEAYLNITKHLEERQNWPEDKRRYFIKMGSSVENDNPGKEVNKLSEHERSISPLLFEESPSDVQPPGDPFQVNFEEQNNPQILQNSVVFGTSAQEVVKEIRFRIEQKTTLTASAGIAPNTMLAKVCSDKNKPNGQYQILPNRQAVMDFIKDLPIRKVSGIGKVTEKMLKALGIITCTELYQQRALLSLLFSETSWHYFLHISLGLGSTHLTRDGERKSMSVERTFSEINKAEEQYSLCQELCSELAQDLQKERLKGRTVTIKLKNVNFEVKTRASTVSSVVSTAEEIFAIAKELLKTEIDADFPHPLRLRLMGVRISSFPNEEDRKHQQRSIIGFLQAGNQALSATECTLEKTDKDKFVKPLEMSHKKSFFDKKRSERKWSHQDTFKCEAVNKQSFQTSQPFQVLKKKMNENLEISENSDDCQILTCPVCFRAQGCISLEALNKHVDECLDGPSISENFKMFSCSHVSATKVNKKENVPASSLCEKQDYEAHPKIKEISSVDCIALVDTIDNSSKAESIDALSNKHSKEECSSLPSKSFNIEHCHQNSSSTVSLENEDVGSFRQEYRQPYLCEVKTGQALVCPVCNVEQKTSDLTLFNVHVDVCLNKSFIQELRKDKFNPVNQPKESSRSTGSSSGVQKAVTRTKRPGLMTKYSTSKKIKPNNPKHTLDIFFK
How it was run: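 Here, compound and 10 nM enzyme are combined for 15 min at room temperature; adding 50 nM substrate (final) starts DNA synthesis, tracked by fluorescence at 0 and 10 min against buffer-only wells.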
% is set by controls: 0 for no effect and ±100 for the full control effect; potency is the fitted concentration of half-maximal effect; tags give direction and shape of the fitted curve.

Potency, active:
CN1/C(=C\C=C2/SC(=S)NC2=O)C(C)(C)c2ccccc21 44.7 µM
COc1cc(OC)c2c(c1O)OC(c1ccccc1)CC2=O (stereo not drawn) 25.1 µM
CN(C)c1ccc(/C=C/c2ccc3ccccc3[n+]2C)cc1 50.1 µM
Cc1ccc(Cl)c2c1N[C@@H](c1ccc(C(=O)O)cc1)[C@H]1CC=C[C@@H]21 31.6 µM
C[C@@]1(C(=O)O)NCCc2cc(O)c(O)cc21 1.78 µM
O=S(=O)(O)c1ccc(O)c2cc(Nc3ccccc3)ccc12 2.82 µM
O=C(/C=C/c1ccco1)Nc1scc(-c2ccccc2)c1C(=O)O 79.4 µM
O=C1NC(=O)C(c2ccccc2[N+](=O)[O-])=C1Nc1ccc(O)c(Cl)c1 11.2 µM

Potency, inactive:
O=C(Nc1nnc(S(=O)(=O)N2CCCCC2)s1)c1ccc(Cl)cc1
O=C1OC(c2ccc(O)cc2)(c2ccc(O)cc2)c2ccccc21

Potency, inconclusive:
Oc1ccc(NCc2ccc(OCc3ccccc3)cc2)cc1 79.4 µM [inhibitor, partial curve, poor fit]
COc1ccc(-n2c(C)cc(/C=C3\C(=N)N4N=C(CC(=O)N5CCOCC5)SC4=NC3=O)c2C)c(OC)c1 89.1 µM [inhibitor, single point]
O=C(O)CC1S/C(=N/N=C/c2ccc(-c3ccc(Cl)cc3[N+](=O)[O-])o2)NC1=O (stereo not drawn) 44.7 µM [inhibitor, partial curve]
N#Cc1cc(C#N)c(SCC(=O)N2CC(=O)Nc3ccccc32)nc1N 79.4 µM [inhibitor, partial curve]
CC(=O)Nc1ccc(Nc2nc3ccccc3nc2NS(=O)(=O)c2ccc(Cl)c([N+](=O)[O-])c2)cc1 79.4 µM [inhibitor, partial curve, poor fit]
COc1cc2oc(=O)cc(-c3ccc(-c4ccc(CO)cc4)cc3)c2c(OC)c1OC 50.1 µM [inhibitor, partial curve, poor fit]
Cc1cc(C(=O)CSc2nnc(-c3ccco3)o2)c(C)n1C 79.4 µM [inhibitor, partial curve, poor fit]
Cc1ccc(N2C(=O)C3N=NN(CC(=O)N4N=C(c5cccc6ccccc56)CC4c4ccccc4)C3C2=O)cc1 (stereo not drawn) 89.1 µM [inhibitor, partial curve, poor fit]
COc1ccc(/C=C/C(=O)OCC(=O)NCc2ccco2)cc1OC 89.1 µM [inhibitor, single point]
Cc1ccnc(NS(=O)(=O)c2ccc(NC(=O)c3ccc(N4C(=O)CCC4=O)cc3)cc2)n1 89.1 µM [inhibitor, single point]
NC(=O)c1ccsc1NC(=O)c1ccc(N2CCCC2=O)cc1 89.1 µM [inhibitor, single point]
Cc1ccc(C(=O)CSc2nc(O)cc(=O)[nH]2)cc1C 89.1 µM [inhibitor, single point]
CCN1CCc2c(sc(NC(=O)c3ccc(C(=O)c4ccccc4)cc3)c2C(N)=O)C1 56.2 µM [inhibitor, partial curve, poor fit]
CC(NC(=O)COC(=O)c1cc([N+](=O)[O-])ccc1N1CCOCC1)c1ccc(F)cc1 (stereo not drawn) 89.1 µM [inhibitor, partial curve, poor fit]
COc1ccc(N2Cc3cccc(C(=O)Nc4ccc(C(C)C)cc4)c3C2=O)cc1 89.1 µM [inhibitor, single point]
COc1ccc(C(=O)COC(=O)c2cccnc2Cl)c(OC)c1 89.1 µM [inhibitor, single point]
[O-]/C(=C(\C(=S)NCc1ccco1)[n+]1ccccc1)c1ccccc1Br 89.1 µM [inhibitor, partial curve, poor fit]
COc1cccc(/C=C/C(=O)OCC(=O)NCc2ccco2)c1 89.1 µM [inhibitor, single point]
CC(=O)Nc1ccc(S(=O)(=O)c2cc(O)ccc2O)cc1 89.1 µM [inhibitor, single point]
COCCNc1nc(-c2ccc(C(=O)N(C)C)cc2)nc2ccccc12 28.2 µM [inhibitor, single point]
COc1ccc(/C=N/NC(=O)c2cc(-c3cccn3C)n[nH]2)cc1OC 44.7 µM [inhibitor, partial curve]
Cc1cccc(SCC(=O)Nc2ccc3c(c2)OCCO3)c1 89.1 µM [inhibitor, single point]
CCOC(=O)c1c(C)n(C)c2ccc(OC)c(NC(=O)CCN3CCC(Cc4ccccc4)CC3)c12 89.1 µM [inhibitor, partial curve, poor fit]
CC(C)COC(=O)/C(C#N)=C\c1ccc(-c2ccccc2Cl)o1 100 µM [inhibitor, single point]
CCN(CC)CCN1C(=O)/C(=C\c2ccc(Cl)c([N+](=O)[O-])c2)SC1=Nc1ccc(OC)cc1 89.1 µM [inhibitor, partial curve, poor fit]
CCOC(=O)C1=C([Si](C)(C)C)c2ccccc2N(S(=O)(=O)C(F)(F)F)C1C(=O)OCC (stereo not drawn) 63.1 µM [inhibitor, partial curve, poor fit]
COc1ccccc1[C@@H]1C(c2ccccc2)=NN(c2ccccc2)[C@H]1C(=O)N1CCOC1=O 44.7 µM [inhibitor, partial curve, poor fit]
COc1cc(-c2nc3ccccn3c2/N=C/c2cc(OC)c(O)cc2Cl)ccc1O 100 µM [inhibitor, single point]
CC(=O)Nc1ccc(S(=O)(=O)N2CCSC2c2ccc(Cl)cc2)cc1 (stereo not drawn) 89.1 µM [inhibitor, partial curve, poor fit]
C=CCn1c(SCC(=O)NCCOC)nc2scc(-c3ccco3)c2c1=O 100 µM [inhibitor, single point]
COC(=O)c1ccc(COc2ccccc2/C=N/Nc2cccc(C(=O)O)c2)cc1 89.1 µM [inhibitor, single point]
N#C/C(=C\c1ccc(O)c(O)c1)C(=O)Nc1ccccc1 12.6 µM [inhibitor, partial curve] and 50.1 µM [inhibitor, partial curve] and 37.7 µM [inhibitor, single point]
N#CC(C(=O)Nc1ccc(Cl)cc1)=C1Nc2ccccc2N1 89.1 µM [inhibitor, partial curve, poor fit]
Cc1ccnc(NC(=S)NC(=O)/C=C/c2ccco2)c1 79.4 µM [inhibitor, partial curve, poor fit]
COc1cccc(CN(C(=O)c2ccc([N+](=O)[O-])cc2)C2CCS(=O)(=O)C2)c1 (stereo not drawn) 89.1 µM [inhibitor, single point]
O=C(Nc1ccc(-c2nc3ccc(NC(=O)c4cccs4)cc3[nH]2)cc1)c1cccs1 56.2 µM [inhibitor, partial curve, poor fit]
CC#CC#Cc1cccc(=O)o1 89.1 µM [inhibitor, partial curve, poor fit]
O=C1c2ccccc2C(=O)c2[nH]c(=O)[nH]c21 79.4 µM [inhibitor, partial curve]
O=C(/C=C/c1ccco1)Nc1cc(Cl)ccc1C(=O)O 79.4 µM [inhibitor, partial curve]
COCCCNC(=O)Cn1c(=O)n(-c2cccc(C)c2)c(=O)c2c3c(sc21)CN(C(C)=O)CC3 89.1 µM [inhibitor, single point]
O=C1N=C(N2CCN(c3ccccc3)CC2)S/C1=C/c1ccco1 79.4 µM [inhibitor, partial curve, poor fit]
O=C(NNC(=S)NC(=O)c1ccccc1)c1cccnc1 89.1 µM [inhibitor, partial curve, poor fit]
N#CC1=C(N)C(C#N)(C#N)C(c2ccc[nH]2)C2CCCC=C12 (stereo not drawn) 89.1 µM [inhibitor, single point]
CC(C)Cc1nc2oc3c(=O)[nH]cnc3c2c2c1CCC2 100 µM [inhibitor, single point]

activity, negative = inhibition, inactive:
COc1ccc(/C=C/C(=O)OCC(=O)NC2CCS(=O)(=O)C2)cc1 (stereo not drawn) 8.84%
N#CCCN(C(=O)COC(=O)CNC(=O)c1cccs1)c1ccc(F)cc1 -22.8%
CCc1ccc(C(C(=O)NC2CCCCC2)N(C(=O)c2csnn2)C2CC2)cc1 (stereo not drawn) 2.46%
CS(=O)(=O)NCC(c1ccco1)N1CCN(c2ccccc2)CC1 (stereo not drawn) -4.9% [at 60.1 µM]
Cc1cn(C2CC3OCC(NC(=O)C4CCCN4C(=O)OC(C)(C)C)C3O2)c(=O)[nH]c1=O (stereo not drawn) -1.38%
O=C(Nc1ccc2nc(SCC(=O)N3CCCc4ccccc43)sc2c1)c1cccc(F)c1 -24%
CCOC(=O)c1ccc(N2C=C(C(=O)OC)C(c3ccc(OC)c(O)c3)C(C(=O)OC)=C2)cc1 0.026%
COc1ccc(Cl)cc1NC(=O)c1c(C(=O)Nc2cccc(C)c2C)sc2nc(C)cc(=O)n12 -3.24%
CC(C)=CNNC(=O)c1ccc(O)cc1 -13%
